Results from patent US12540138B2, “Substituted oxaspiro[4.5]decanes as MOR receptor agonists” (priority 2020, dated 2026).

Assays:
[1] = molecular target: T1, MOR receptor (PathHunter CHO-K1 OPRM1 β-Arrestin Cell Line) (Homo sapiens, UniProt P35372); experiment: cell-based; conditions: read-out: β-arrestin Emax (%), Morphine was 100%
[2] = molecular target: T1, MOR receptor (PathHunter CHO-K1 OPRM1 β-Arrestin Cell Line); experiment: HTRF-cAMP cell experiment; conditions: for Emax: read-out: cAMP Emax (%) Morphine was 100%
[3] = maximum effect relative to morphine (100%), PathHunter CHO-K1 OPRM1 β-arrestin cells

T1 sequence (P35372 whole entry): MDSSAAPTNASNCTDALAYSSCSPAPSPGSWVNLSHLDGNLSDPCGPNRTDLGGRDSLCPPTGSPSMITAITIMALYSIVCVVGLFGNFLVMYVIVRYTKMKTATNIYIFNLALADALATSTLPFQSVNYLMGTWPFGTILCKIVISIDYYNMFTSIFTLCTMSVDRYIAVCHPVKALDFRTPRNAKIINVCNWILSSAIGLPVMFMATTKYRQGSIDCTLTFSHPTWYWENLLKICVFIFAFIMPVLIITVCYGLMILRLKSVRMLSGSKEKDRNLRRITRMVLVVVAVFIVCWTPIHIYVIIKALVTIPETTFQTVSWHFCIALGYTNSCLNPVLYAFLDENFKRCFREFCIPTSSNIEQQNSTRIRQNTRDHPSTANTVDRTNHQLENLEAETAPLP

SMILES | Emax [1, 3] [%] | EC50 [2] [nM] | Emax [2] [%] | Emax [1] [%]
CC1([C@@H]2C[C@H](NCC[C@@]3(c4ccccn4)CCOC4(CCCC4)C3)c3ccnn32)CC1 (single isomer, unassigned) [Compound H-2a] | 7 | 1 | 56.3 | –
CC1([C@H]2C[C@H](NCC[C@@]3(c4ccccn4)CCOC4(CCCC4)C3)c3ccnn32)CC1 (single isomer, unassigned) [Compound H-2b] | 5.7 | 26.2 | 68.2 | –
CC(C)(C)[C@@H]1C[C@H](NCC[C@@]2(c3ccccn3)CCOC3(CCCC3)C2)c2ccnn21 [Compound H-1a, (4S,6S)-6-tert-butyl-N-(2-((R)-9-(pyridin-2-yl)-6-oxaspiro[4.5]decan-9-yl)ethyl)-5,6-dihydro-4H-pyrrolo[1,2-b]pyrazol-4-amine] | 17.6 | 8.1 | 97.4 | –
CC(C)(C)[C@H]1C[C@H](NCC[C@@]2(c3ccccn3)CCOC3(CCCC3)C2)c2ccnn21 [Compound H-1b, (4S,6R)-6-tert-butyl-N-(2-((R)-9-(pyridin-2-yl)-6-oxaspiro[4.5]decan-9-yl)ethyl)-5,6-dihydro-4H-pyrrolo[1,2-b]pyrazol-4-amine] | 12 | 42 | 94.2 | –
CC(C)[C@@H]1C[C@H](NCC[C@@]2(c3ccccn3)CCOC3(CCCC3)C2)c2ccnn21 [Compound H-3a, (4S,6S)-6-isopropyl-N-(2-((R)-9-(pyridin-2-yl)-6-oxaspiro[4.5]decan-9-yl)ethyl)-5,6-dihydro-4H-pyrrolo[1,2-b]pyrazol-4-amine] | – | – | – | 1.3
CC(C)[C@H]1C[C@H](NCC[C@@]2(c3ccccn3)CCOC3(CCCC3)C2)c2ccnn21 [Compound H-3b, (4S,6R)-6-isopropyl-N-(2-((R)-9-(pyridin-2-yl)-6-oxaspiro[4.5]decan-9-yl)ethyl)-5,6-dihydro-4H-pyrrolo[1,2-b]pyrazol-4-amine] | – | 26 | 68.5 | 4.7
